# Hit rate of the full screen: of about 310,000 compounds, about 14,000 (4.5%) showed an effect of 50% or more. Effects have a minus sign here. The list shows a part of the results.
# Biological target: human ether-à-go-go-related gene (hERG) potassium channel (human, UniProt Q12809)
# Assay: primary screen, population patch clamp on CHO cells stably expressing hERG
# 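Further: peak tail current of the secondary pulse compared with the same well before compound.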
# human ether-à-go-go-related gene (hERG) potassium channel, sequence (Q12809 whole entry, looked up): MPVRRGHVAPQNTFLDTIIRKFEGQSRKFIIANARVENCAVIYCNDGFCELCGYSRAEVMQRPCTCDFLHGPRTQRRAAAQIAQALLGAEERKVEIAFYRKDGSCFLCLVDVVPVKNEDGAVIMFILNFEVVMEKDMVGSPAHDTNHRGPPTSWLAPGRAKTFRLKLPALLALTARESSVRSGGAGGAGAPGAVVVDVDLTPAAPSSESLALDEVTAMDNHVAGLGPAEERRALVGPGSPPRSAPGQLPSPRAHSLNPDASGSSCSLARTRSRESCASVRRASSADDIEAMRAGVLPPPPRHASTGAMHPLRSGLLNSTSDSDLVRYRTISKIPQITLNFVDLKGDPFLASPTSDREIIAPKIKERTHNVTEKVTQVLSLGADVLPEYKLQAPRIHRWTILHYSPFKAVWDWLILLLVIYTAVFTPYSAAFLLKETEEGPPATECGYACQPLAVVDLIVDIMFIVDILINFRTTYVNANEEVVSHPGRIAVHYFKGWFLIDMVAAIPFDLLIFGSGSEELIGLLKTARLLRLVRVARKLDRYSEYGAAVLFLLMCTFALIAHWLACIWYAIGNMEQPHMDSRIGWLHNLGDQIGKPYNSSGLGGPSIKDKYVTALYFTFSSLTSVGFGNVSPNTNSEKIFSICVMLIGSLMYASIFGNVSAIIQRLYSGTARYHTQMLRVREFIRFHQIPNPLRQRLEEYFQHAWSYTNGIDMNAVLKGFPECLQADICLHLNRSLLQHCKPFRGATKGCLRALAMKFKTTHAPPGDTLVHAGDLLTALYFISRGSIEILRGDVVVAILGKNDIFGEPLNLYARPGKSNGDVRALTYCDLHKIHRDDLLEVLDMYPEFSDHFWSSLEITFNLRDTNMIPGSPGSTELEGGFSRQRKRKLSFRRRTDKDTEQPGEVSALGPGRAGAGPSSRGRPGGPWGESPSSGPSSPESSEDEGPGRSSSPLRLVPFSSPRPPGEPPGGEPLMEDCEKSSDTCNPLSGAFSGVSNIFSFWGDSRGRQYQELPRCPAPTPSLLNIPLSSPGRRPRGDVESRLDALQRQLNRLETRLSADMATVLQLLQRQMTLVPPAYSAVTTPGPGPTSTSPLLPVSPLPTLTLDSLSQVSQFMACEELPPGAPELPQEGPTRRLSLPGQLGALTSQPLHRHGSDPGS
row,SMILES,"hERG current change (%, negative = inhibition) at 10uM"
1,COc1ccc(C2C(C(C)=O)=C(O)C(=O)N2CCO)c(OC)c1 (stereo not drawn),14%
2,O.Oc1cc(O)c2c(c1)OC(c1ccc(O)c(O)c1)C(O)C2 (stereo not drawn),-5.86%
3,Cc1cc(NS(=O)(=O)c2ccc(NC(=O)c3oc4ccccc4c3C)cc2)no1,-8.02%
4,CC(C)CC(NC(=O)c1cccc(Cl)c1)C(=O)O (stereo not drawn),25%
5,CCOC(=O)N1CCN(C(=O)c2ccccc2CCc2ccccc2)CC1,-59.1%
6,Cn1c(-c2ccccc2)cnc1NCc1cc(Cl)ccc1O,19.9%
7,COc1ccccc1NC(=O)c1ccc(NS(=O)(=O)c2ccc(F)c(F)c2F)cc1,-6.5%
8,O=C1NC(=O)/C(=C\c2ccc(Sc3ccc(Cl)cc3)o2)N1,2.37%
9,Cc1nn(-c2ccccc2)c(Cl)c1/C=N/NC(=O)c1ccncc1,1.04%
10,Cc1cc(OCC(=O)OC(C)C(=O)Nc2ccc(N3CCOCC3)cc2)ccc1Cl (stereo not drawn),2.54%
11,CC1=NN(c2ccccc2)C(=O)C1C(=O)c1cc([N+](=O)[O-])cc([N+](=O)[O-])c1 (stereo not drawn),2%
12,O=C(Oc1cccc2cccnc12)c1cccc(N2C(=O)C3C4CCC(C4)C3C2=O)c1 (stereo not drawn),-7.07%
13,Cc1occc1C(=O)NC1CCCCCCC1,1.53%
14,COc1ccccc1N1CCN(Cc2ccccc2Cl)CC1,-23.5%
15,Cn1c(NNC(=O)c2c(F)cccc2F)cc(=O)n(C)c1=O,-6.67%
16,O=C(CSc1ccc(Cl)cc1)Nc1ccc(NC(=O)c2ccco2)cc1,3.29%
17,COc1cccc(C(=O)Nc2ccc3c(C)cc(=O)oc3c2)c1,9.06%
18,COCCNC(=O)c1cccc(OC2CCN(Cc3cccc(SC)c3)CC2)c1,-35.2%
19,COc1ccc(N(C)C(=O)Cc2c(C(=O)O)[nH]c3ccccc23)c(OC)c1,25.8%
20,COCCNC(=O)c1onc(CSc2cccc(Cl)c2)c1C(=O)O,16.3%
21,CC(O)CNC(=O)C1CCN(Cc2ccc(OCc3ccccc3)cc2)CC1.O=C(O)C(=O)O (stereo not drawn),-33.2%
22,O=C1C(=O)N(c2ccccn2)C(c2ccc(Br)cc2)/C1=C(/O)c1ccc(Br)cc1 (stereo not drawn),-47.8%
23,O=C(OCc1nc2ccccc2s1)c1ccco1,7.79%
24,O=C1N=C([O-])CN1/N=C/c1ccc(-c2ccc([N+](=O)[O-])cc2)o1.[Na+],-18%
25,Oc1ccc2ccccc2c1C=Nc1ccccc1Br,3.7%
26,Cc1[nH]nc2c1C(CC(C)C)C(C#N)=C(N)O2 (stereo not drawn),21.3%
27,Clc1ccc(-c2ccnc(Oc3cc(Cl)ccc3Cl)n2)cc1,14.6%

row,SMILES,"hERG current change (%, negative = inhibition) at 10uM"
1,COc1ccc(NC(=O)CN2C(=O)C(C)Oc3ccccc32)cc1 (stereo not drawn),-0.0431%
2,CCC(C)[C@H](NC(=O)C1CCN(C(=O)[C@H](Cc2ccccc2)NC(=O)OC(C)(C)C)CC1)C(=O)O (stereo partly drawn),-1.42%
3,Cc1ccc2c(c1)C(c1ccccc1)N(C(=O)c1c(F)cccc1Cl)CC(=O)N2 (stereo not drawn),-22.3%
4,Cc1ccc(S(=O)(=O)/N=C2/C=C(C3C(=O)CC(C)(C)CC3=O)C(=O)c3ccccc32)cc1,0.322%
5,O=c1c2ccccc2cnn1-c1ccc(Cl)cc1,-1.86%
6,NC(=O)CCS(=O)(=O)CCN1CCCCC1,17.4%
7,N#CC1=C(N)Oc2cc(N)ccc2C1c1cccc(F)c1 (stereo not drawn),-19.8%
8,O=C(CSc1nc2ccccc2o1)Nc1ccc(N2CCOCC2)c(Cl)c1,-9.82%
9,C=CCNC(=O)c1onc(CSc2cccc(OC)c2)c1C(=O)O,18.2%
10,CC(=O)O[C@H]1CC(C)(C)C(=C=C/C(C)=C/C=C/C(C)=C/C=C/C=C(C)/C=C/C=C(\C)C(=O)C[C@@]23O[C@]2(C)C[C@@H](O)CC3(C)C)[C@](C)(O)C1,3.02%
11,COc1ccc(NC(=O)CSc2nnc(NC(C)=O)s2)c([N+](=O)[O-])c1,13%
12,CC(C)(C)c1ccc2c(c1)OC(C(=O)N/N=C/c1ccc([N+](=O)[O-])o1)CO2 (stereo not drawn),-39.2%
13,Cc1ccccc1N/N=C1\CCCNC1=O,3.4%
14,Cl.Cn1nnnc1SCCNCc1ccccc1OCc1ccccc1Cl,-27.6%
15,COc1cc(-c2nnc(COC(=O)CSc3cc(C)c4ccccc4n3)o2)cc(OC)c1OC,-0.253%
16,O=C1C=C(c2cccc(CO)c2)C[C@@H](c2ccc3c(c2)OCO3)C1,-18.7%
17,CC1CN(C(=O)c2ccccc2)OC(c2ccc3c(c2)OCO3)O1 (stereo not drawn),-13.7%
18,O=C(CN1C(=O)c2ccccc2C1=O)Nc1cc([N+](=O)[O-])ccc1O,16.2%
19,CCOc1ccc(N(C(C)C(=O)NC2CCCCCC2)S(C)(=O)=O)cc1 (stereo not drawn),-1.85%
20,C=C(C)Cn1c(SCC(=O)N/N=C/c2ccccc2)nc2ccccc2c1=O,7.5%
21,CC(=O)c1ccc(N(C(=O)c2ccco2)C(C(=O)NC2CCCC2)c2ccc(N3CCOCC3)cc2)cc1 (stereo not drawn),-15.2%
22,CCOc1ccc2[nH]c(=O)c(C(c3nnnn3C3CCCCC3)N3CCN(C)CC3)cc2c1 (stereo not drawn),-19.8%
23,CCOc1ccc2[nH]c(S(=O)(=O)CC)nc2c1Cl,17.3%
24,COc1ccccc1OCCn1c(C(C)O)nc2ccccc21 (stereo not drawn),7.4%
25,COc1ccc(/C=C(/C#N)C(=O)Nc2cc(C)ccc2C)cc1C(=O)O,4.23%
26,Cc1cc(NC(=O)c2ccc(C)o2)no1,17.8%
27,Cc1ccc2[nH]c(=O)c(CN(CCCN3CCOCC3)C(=O)NC3CCCCC3)cc2c1,-25.7%
